Source: PubChem BioAssay AID1466 (National Center for Advancing Translational Sciences (NCATS), 2008)
Screen size: about 200,000 compounds; about 10 (0.005%) were called active. The inconclusive results got no clear call from the source; some entries with a clear call stand among them for comparison. The call rests on the fitted dose curve; in most records, active means well fitted inhibition curve with a large enough effect; inconclusive means small, poorly fitted or top-dose-only effect, or effect the other way, or another doubt; inactive means no such curve, though single readings can be large or run the other way. Potencies of inconclusive entries are left out as doubtful fits.

target: Lysosomal alpha-glucosidase (Homo sapiens) (UniProt P10253); assay: qHTS Assay for Inhibitors of Human alpha-Glucosidase as a Potential Chaperone Treatment of Pompe Disease; conditions: purified human GAA, 4-MU-alpha-glucoside fluorescence; activity change, negative = inhibition: at 76.9 µM (top of the series) unless noted;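 on activity change, negative = inhibition: plate controls were uninhibited enzyme wells for no effect and no-enzyme background for full effect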
Description: NIH Chemical Genomics Center [NCGC] NIH Molecular Libraries Probe Production centers Network [MLPCN] MLPCN Grant: 1R03MH084841-01 Assay Submitter (PI): Wei Zheng NCGC Assay Overview: Alpha-glucosidase is responsible for hydrolysis of terminal, non-reducing 1,4-linked alpha-D-glucose residues with release of alpha-D-glucose. It is a lysosomal hydrolase that is required for the degradation of a small percentage (1-3%) of cellular glycogen in human. Deficiency of this enzyme results in glycogen-storage disease type II (GSDII), also referred to as Pompe disease, an autosomal recessive disorder. Structurally normal glycogen is accumulated in lysosomes and cytoplasm in affected patients, primarily in muscle tissues. Excessive glycogen storage within lysosomes may interrupt normal functioning of other organelles and leads to cellular injury. In turn, this leads to enlargement and dysfunction of the entire organ involved (eg, cardiomyopathy and muscle weakness). It has reported that the improper folding and trafficking of alpha-glucosidase resulting from the genetic mutations may account for a significant number of Pompe patients. […] We optimized this alpha-glucosidase assay in 1536-well plate format for identifying the novel small molecule inhibitors with the structures other than the sugar analogs in order to develop the new pharmacological chaperones.
NCGC Assay Protocol Summary: This is a fluorogenic enzyme assay with 4-methylumbelliferyl-alpha-D-[…] as the substrate and human alpha-glucosidase as the enzyme preparation. Upon the hydrolysis of this fluorogenic substrate, the resulting product, 1. 4-methyllumbelliferone, can be excited at 365 nm and emits at 440 nm which can be detected by a standard fluorescence plate reader. Data were normalized to the controls for basal activity (without enzyme) and 100% activity (with enzyme). In the AC50 values were determined from concentration-response data modeled with the standard Hill equation. Assay buffer: 50 mM citric acid (titrated with potassium phosphate to pH 5.0), 0.005% Tween-20, pH 5.0. (pH 5.0 is an optimal condition for this enzyme assay) 1536-well assay protocol for the human alpha-glucosidase: (1) Add 2 ul/well of enzyme (4 nM final) (2) Add 23 nL compounds in DMSO solution. The final titration was 0.7 nM to 77 uM. (3) Add 1 ul of substrate (400 uM final) (4) Incubate at room temperature for 20 min. (5) Add 2 ul stop solution (1M NaOH and 1M Glycine mixture, pH 10) (6) Detect the assay plate in a ViewLux plate reader (PerkinElmer) with Ex=365 nm and Em=440nm. Keywords: Alpha-glucosidase, Pompe Disease, pharmacological chaperone, chaperone therapy, high throughput screening, alpha-glucosidase inhibitor, MLSMR, MLSCN, NIH Roadmap, qHTS and NCGC
Potency means the concentration at half of the fitted maximal effect; tags describe the fitted curve by direction and shape.

Row | Structure (SMILES) | activity change, negative = inhibition | Potency
1 | N#Cc1c(N)nc2c(c1N)CC(=O)N2c1ccc(Cl)cc1 | inconclusive: -20.7% [inhibitor] | 
2 | OCc1cn(-c2ccccc2)nc1-c1cc2ccccc2o1 |  | inconclusive [activator, single point]
3 | Cc1onc(-c2ccccc2Cl)c1C(=O)Nc1cccc(-c2cn3cccnc3n2)c1 |  | inconclusive [activator, partial curve]
4 | CC(C)Cc1cc(C(=O)N2CCC(N3CCC(C(=O)N4CCOCC4)CC3)CC2)n[nH]1 | inconclusive: 17.1% [activator] | 
5 | CCc1ccc(NC(=O)C2CCN(S(C)(=O)=O)CC2)cc1 |  | inconclusive [inhibitor, partial curve]
6 | COC(=O)CSc1cc([N+](=O)[O-])ccc1NC(=O)OC | inconclusive: 11.4% [activator] | 
7 | CCc1c(C)sc(NC(=S)NC(C)C2CCCO2)c1C(=O)OC (stereo not given) |  | inconclusive [inhibitor, single point]
8 | COCC(=O)N/N=C(\C)CC(=O)Nc1ccccc1C(N)=O |  | inconclusive [inhibitor, partial curve, poor fit]
9 | Cc1ccc2nc(-c3ccccc3O)c(Nc3ccc4c(c3)OCCO4)n2c1 | inactive: -6.98% | 
10 | CC1(C)CC(=O)C(C(C2=C(O)CC(C)(C)CC2=O)c2cccc(O)c2)C(=O)C1 (stereo not given) |  | inconclusive [inhibitor, single point]
11 | O=C(N/N=C\c1ccc(Br)o1)C1COc2ccccc2O1 (stereo not given) | inconclusive: 19.6% [activator] | 
12 | Nc1nc(-c2cccs2)c(NC(=O)c2ccccc2)s1 | inactive: -4.84% | 
13 | CCOC(=O)c1cnc(SCC(=O)Nc2ccc(N3CCOCC3)c(Cl)c2)nc1N |  | inconclusive [inhibitor, partial curve]
14 | CCCCC(=O)Nc1ccc2c3c(cccc13)CC2 |  | inconclusive [inhibitor, single point]
15 | CN(C)CCCN1c2ccccc2Sc2ccc(Cl)cc21 |  | inconclusive [inhibitor, single point]
16 | Cc1ccccc1NC(=S)N(CCc1c(C)[nH]c2ccc(F)cc12)Cc1ccncc1 |  | inconclusive [inhibitor, single point]
17 | Cc1ccc(S(=O)(=O)CC(=O)Nc2ccc(S(=O)(=O)Nc3onc(C)c3C)cc2)cc1 |  | inconclusive [inhibitor, single point]
18 | CCOC(=O)C(Cc1ccccc1)NC(=O)CNC(C)=O (stereo not given) | inactive: -1.11% | 
19 | COc1ccc(C(=O)N(Cc2ccco2)Cc2cccs2)c(O)c1 | inactive: 7.37% | 
20 | COCC(C)NS(=O)(=O)c1ccc(NC(=O)C(Cc2ccccc2)NC(N)=O)cc1 (stereo not given) |  | inconclusive [inhibitor, single point]
21 | Cc1ccc(OCCCC(=O)Nc2nnc(C3CCCO3)s2)c(C)c1 (stereo not given) | inconclusive: 17.1% [activator] | 
22 | CC(=O)c1ccc2c(c1)C1C=CCC1C(C(=O)O)N2 (stereo not given) | inactive: 4.17% | 
23 | Cc1cc(OCCCN2CCN(Cc3ccccc3)CC2)ccc1[N+](=O)[O-] | inconclusive: 3.49% [activator] | 

Row | Structure (SMILES) | activity change, negative = inhibition | Potency
24 | COc1cc(OC)cc(C(=O)NNC(=O)CCc2ccccc2)c1 |  | inconclusive [inhibitor, single point]
25 | COc1ccc(-c2cc(=O)c(C(=O)c3ccc(C)cc3)n[nH]2)cc1 | inactive: 11.3% | 
26 | Cc1noc(C)c1S(=O)(=O)N(CC(=O)Nc1ccc2c(c1)OCO2)c1ccc(C(C)C)cc1 | inconclusive: -16.8% [inhibitor] | 
27 | Cc1ccc(C2CC(c3cccs3)n3nc(N)nc3N2)cc1 (stereo not given) |  | inconclusive [inhibitor, partial curve, poor fit]
28 | CC(=O)c1cc(F)c(N2CCN(C(=O)C(C)(C)C)CC2)cc1C | inconclusive: -16.8% [inhibitor] | 
29 | CC(=O)N1CCN(CC(=O)Nc2cc([N+](=O)[O-])ccc2Cl)CC1 | inactive: 4.03% | 
30 | O=C(COC(=O)c1ccc2ccccc2n1)c1ccc(F)cc1 | inconclusive: 17.8% [activator] | 
31 | O=C1CCCC(=O)C1CS(=O)(=O)c1ccccc1 |  | inconclusive [inhibitor, single point]
32 | COC(C(=O)Nc1ccccc1F)c1ccccc1 (stereo not given) |  | inconclusive [inhibitor, single point]
33 | COC(=O)c1ccccc1NC(=O)Nc1ncccc1C | inconclusive: 34.6% [activator] | 
34 | COc1ccc(N(CC(=O)NCC(C)C)S(=O)(=O)c2ccccc2)cc1 | inconclusive: 12.6% [activator] | 
35 | COc1cc(/C=C2/NC(=O)N(Cc3ccccc3F)C2=O)cc(OC)c1O |  | inconclusive [inhibitor, single point]
36 | CCCN(CCC)c1ccc(/C=N/NC(=O)CN2CCOCC2)cc1 |  | inconclusive [activator, partial curve]
37 | O=C(COC(=O)Cc1ccc(S(=O)(=O)N2CCCCC2)s1)Nc1ccc2c(c1)OCO2 |  | inconclusive [inhibitor, single point]
38 | COc1ccc(C(=O)NCCn2cc(SCC(=O)N3CCOCC3)c3ccccc32)cc1 | inactive: 3.14% | 
39 | COCCNC(=O)c1cc2c(=O)n3cccc(C)c3nc2n1C | inconclusive: 16.6% [activator] | 
40 | Fc1cc(NCc2ccccc2)nc(NCc2ccccc2)n1 |  | inconclusive [inhibitor, single point]
41 | COc1ccc(C(=O)Nc2c(C)csc2C(=O)O)cc1 | inconclusive: 15% [activator] | 
42 | COC(=O)[C@@H](NC(=O)NCc1ccc(F)cc1)C(C)C |  | inconclusive [inhibitor, single point]
43 | COc1ccccc1N1CCN(c2cc(=O)n(-c3ccc(Cl)cc3)c(=O)[nH]2)CC1 |  | inconclusive [inhibitor, partial curve, poor fit]
44 | O=C(c1ccccn1)N(Cc1ccco1)C1(C(=O)NC2CCCC2)CCCCC1 |  | inconclusive [inhibitor, partial curve]
45 | COc1cccc(/C=C/c2nc3c(cnn3-c3ccccc3)c(=O)[nH]2)c1 |  | inconclusive [activator, partial curve, poor fit]
